Measurements: the antibiotic and cytotoxicity screens of Wong et al. (2023)
The other results are listed elsewhere or left out.

System: HSkMC (human skeletal muscle cells)
Assay: cytotoxicity call (relative viability < 0.9)
Settings: 10 µM

Structure (SMILES) | cytotoxicity call
C=CCC[C@H](Cc1ccc(F)cc1)C(=O)OC[C@@H](Cc1c[nH]c2ccccc12)NC(=O)[C@H](CC=C)CC(=O)N(CCO)Cc1ccccc1 | active
COCC#Cc1ccc2c(c1)O[C@@H](CN(C)S(=O)(=O)c1ccc(F)cc1)[C@@H](C)CN([C@@H](C)CO)S2(=O)=O | active
Cc1ccc(S(=O)(=O)Nc2ccc3c(c2)C(=O)N([C@H](C)CO)C[C@H](C)[C@H](CN(C)S(C)(=O)=O)OCCCC[C@H](C)O3)cc1 | inactive
O=C(CN1CCOCC1)NCC[C@H]1CC[C@@H](NC(=O)c2ccc3c(c2)OCO3)[C@H](CO)O1 | inactive
CC(C)CCN1CCn2c(CO)nnc2C1 | inactive
COc1cccc(-c2ccc3c(c2)O[C@@H](CN(C)Cc2cncnc2)[C@H](C)CN([C@H](C)CO)S3(=O)=O)c1 | inactive
CNC(=O)Nc1ccc(C(=O)NC)cc1 | inactive
COCC(=O)Nc1ccc2c(c1)C(=O)N(C)C[C@@H](OC)[C@H](C)CN(C(=O)c1ccccc1F)[C@H](C)CO2 | inactive
COC(=O)c1c(CC[C@@H](CO)NC(=O)N[C@H](Cn2cc(Cc3ccccc3)nn2)C(C)C)oc(C(C)=O)c1C(=O)OC | inactive
O=C(CCC(=O)N1CCOCC1)Nc1c(F)c(F)nc(N2CCOCC2)c1F | inactive
CCOC(=O)C(CCc1ccccc1)NC(C)C(=O)N1C(C(=O)O)CC2CCCC21 (stereo not given) | inactive
O=C(C[C@@H]1CC[C@H]2[C@@H](COC[C@@H](O)CN2Cc2cccc(C(F)(F)F)c2)O1)NCCc1ccncc1 | inactive
COc1ccc(CN(C)C[C@@H]2OCCCC[C@@H](C)Oc3ccc(NS(=O)(=O)c4c(C)noc4C)cc3C(=O)N([C@H](C)CO)C[C@@H]2C)cc1 | inactive
C[C@@H]1CN([C@@H](C)CO)S(=O)(=O)c2ccc(C#CCC3CCCC3)cc2O[C@H]1CN(C)C(=O)CN(C)C | inactive
C[C@@H]1CCCCO[C@@H](CN(C)Cc2ccc(C(F)(F)F)cc2)[C@@H](C)CN([C@H](C)CO)C(=O)c2cc(NS(=O)(=O)c3ccc(Cl)cc3)ccc2O1 | inactive
COc1ccc([Si](C)(C)[C@@H]2[C@@H](CC(=O)N3CCC[C@H]3CO)O[C@]3(C(=O)N(Cc4cccc(N5CCCCC5=O)c4)c4ccccc43)[C@H]2C)cc1 | inactive
Cc1ccc(S(=O)(=O)N(C)C[C@H]2OCCCC[C@@H](C)Oc3ccc(NC(=O)Cc4ccccc4)cc3C(=O)N([C@@H](C)CO)C[C@H]2C)cc1 | inactive
Cc1noc(C)c1NC(=O)Nc1ccc2c(c1)C(=O)N([C@H](C)CO)C[C@@H](C)[C@H](CN(C)C(=O)Nc1ccc(C(F)(F)F)cc1)O2 | inactive
COc1ccc2c3c([nH]c2c1)[C@H](CO)N(CC1CCCC1)C[C@]13CCN(CC1)C(=O)c1ccc(cc1)F | active
O=C(O)c1cnc(N2CCCC2)nc1 | inactive

Structure (SMILES) | cytotoxicity call
C[C@@H]1CCCCO[C@@H](CN(C)Cc2ccc(C(F)(F)F)cc2)[C@@H](C)CN([C@@H](C)CO)C(=O)c2cc(NC(=O)c3ccncc3)ccc2O1 | inactive
CCc1nc2c(OCC(=O)c3ccc(Cl)cc3Cl)cccn2c1N(C=O)Cc1ccc(OC)cc1 | inactive
C[C@@H]1CCCCO[C@@H](CN(C)Cc2ccc(C(=O)O)cc2)[C@@H](C)CN([C@H](C)CO)C(=O)c2cc(NC(=O)NC3CCCCC3)ccc2O1 | inactive
Cc1ccc(S(=O)(=O)Nc2ccc3c(c2)C(=O)N([C@@H](C)CO)C[C@H](C)[C@@H](CN(C)S(=O)(=O)c2ccc(C)cc2)OCCCC[C@H](C)O3)cc1 | inactive
C[C@H](CO)N1C[C@H](C)[C@@H](CN(C)S(=O)(=O)c2ccc(Cl)cc2)OCCCC[C@H](C)Oc2ccc(NC(=O)NC3CCCCC3)cc2C1=O | inactive
O=C(O)CSc1ncnc2nc[nH]c12 | inactive
C[C@H](CO)N1C[C@H](C)[C@@H](CN(C)S(=O)(=O)c2cn(C)cn2)Oc2c(NC(=O)C3CCOCC3)cccc2C1=O | inactive
O=C1O[C@H](c2ccccc2)[C@H](c2ccccc2)N2[C@H]1[C@@H](C(=O)N1CCCCCCC1)[C@]1(C(=O)Nc3ccc(C#CC4=CCCCC4)cc31)[C@H]2c1ccc(O)cc1 | inactive
C=CCOC(=O)[C@H]1[C@@H]2C(=O)O[C@@H](c3ccccc3)[C@@H](c3ccccc3)N2[C@@H](c2ccc(OCCOC(=O)NCCCCCC(=O)NO)cc2)[C@@]12C(=O)Nc1ccccc12 | inactive
C[C@@H]1CN([C@H](C)CO)C(=O)Cc2cc(NS(=O)(=O)c3cn(C)cn3)ccc2O[C@H]1CN(C)Cc1ccccc1 | inactive
CC(C)NC(=O)Nc1ccc2c(c1)C(=O)N([C@@H](C)CO)C[C@H](C)[C@H](CN(C)Cc1ccc(Oc3ccccc3)cc1)O2 | inactive
C[C@@H]1CN([C@@H](C)CO)C(=O)Cc2cc(NS(=O)(=O)c3cn(C)cn3)ccc2O[C@H]1CN(C)Cc1ccccc1 | inactive
Nc1cncnc1 | inactive
COc1ccc(S(=O)(=O)N2C[C@@H](O)COC[C@H]3O[C@@H](CC(=O)NCc4ccc(Cl)c(Cl)c4)CC[C@@H]32)cc1 | inactive
Cc1nsc(C(=O)NC[C@H]2CCCO2)n1 | inactive
C[C@@H]1CN([C@H](C)CO)C(=O)CCCn2cc(nn2)CO[C@@H]1CN(C)C(=O)CCCN(C)C | inactive
Cc1cc(C)c(S(N)(=O)=O)cc1S(N)(=O)=O | inactive
C[C@H]1CN([C@@H](C)CO)C(=O)Cc2cc(NS(=O)(=O)c3cn(C)cn3)ccc2O[C@@H]1CN(C)CC1CCCCC1 | inactive
CCS(=O)(=O)Nc1ccc2c(c1)C(=O)N(C)[C@@H]1CC[C@H](CC(=O)N[C@@H]3CCN(Cc4ccccc4)C3)O[C@@H]1CO2 | inactive
C[C@H](O)C#Cc1cnc2c(c1)C(=O)N([C@H](C)CO)C[C@@H](C)[C@H](CN(C)C(=O)Nc1ccc(C(F)(F)F)cc1)O2 | inactive
